# Measured values published in the BET-seq Pho4 binding data (Le et al. 2018).
# This is one part of the list. These are noisy estimates, calculated here from bound and input reads.
# Target: T1, Pho4 (S. cerevisiae) (UniProt P07270)
# T1 sequence: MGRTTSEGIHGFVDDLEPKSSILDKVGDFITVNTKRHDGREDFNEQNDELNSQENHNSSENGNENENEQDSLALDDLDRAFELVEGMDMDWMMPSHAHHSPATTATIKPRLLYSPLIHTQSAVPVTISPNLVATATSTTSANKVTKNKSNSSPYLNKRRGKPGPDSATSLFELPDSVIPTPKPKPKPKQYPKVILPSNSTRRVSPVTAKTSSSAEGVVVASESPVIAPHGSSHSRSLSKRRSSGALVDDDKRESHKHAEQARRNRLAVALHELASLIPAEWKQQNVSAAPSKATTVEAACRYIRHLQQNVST
# Assay: relative binding free energy (BET-seq); higher = weaker binding
# Settings: reference: library average
row,Sequence,relative binding free energy
1,TAGGTCACGTGCGTTA,0.13 kcal/mol
2,ACGGGCACGTGGGGTG,-0.37 kcal/mol
3,GGTATCACGTGTGAAA,0.17 kcal/mol
4,TATTCCACGTGTTGAT,0.16 kcal/mol
5,CTTTTCACGTGGCTAG,0.32 kcal/mol
6,GATGTCACGTGCATTT,0.09 kcal/mol
7,CTTAACACGTGGGCGT,-0.08 kcal/mol
8,CAGGGCACGTGTTGTT,-0.01 kcal/mol
9,ATGTGCACGTGTCCTG,-0.01 kcal/mol
10,TGGCACACGTGTGGGG,0.19 kcal/mol
11,CAGTTCACGTGGGTTC,0.16 kcal/mol
12,GTTAGCACGTGATATT,0.1 kcal/mol
13,TTTTACACGTGTGCTC,0.16 kcal/mol
14,TTTAGCACGTGGGGAA,-0.02 kcal/mol
15,GTCATCACGTGAGGTT,0.16 kcal/mol
16,TTTATCACGTGGGCTA,-0.09 kcal/mol
17,TTACTCACGTGAAGTT,0.47 kcal/mol
18,AGTTGCACGTGGCAGG,-0.08 kcal/mol
19,GTTTGCACGTGAAGTA,0.23 kcal/mol
20,TTGGTCACGTGGCTGT,0.01 kcal/mol
21,CTGGGCACGTGGAGTA,-0.27 kcal/mol
22,ATTCGCACGTGCTGTA,0.01 kcal/mol
23,GTAATCACGTGGGTTG,0.16 kcal/mol
24,GTTGTCACGTGGAGTG,0.09 kcal/mol
25,TTATTCACGTGTTTTC,0.19 kcal/mol
26,TGCTTCACGTGGGGGG,0.22 kcal/mol

row,Sequence,relative binding free energy
1,TGGTTCACGTGGGCGT,0.15 kcal/mol
2,CTCGTCACGTGTTGGT,0.07 kcal/mol
3,GCAAGCACGTGGTGGA,-0.02 kcal/mol
4,TTCAGCACGTGTATTG,-0.05 kcal/mol
5,GCTTTCACGTGTGGGG,0.34 kcal/mol
6,TTGTGCACGTGAAGTC,0.25 kcal/mol
7,AGTGACACGTGTGCTG,-0.18 kcal/mol
8,TTTGTCACGTGGGTCC,0.05 kcal/mol
9,TGTGACACGTGGCTAA,-0.04 kcal/mol
10,GGTGGCACGTGGTTTC,-0.1 kcal/mol
11,ATAAGCACGTGGGTGG,-0.25 kcal/mol
12,AGTATCACGTGGTGCA,0.05 kcal/mol
13,GGTATCACGTGAGTCG,0.39 kcal/mol
14,GTCTTCACGTGATTTC,0.6 kcal/mol
15,TTCGGCACGTGTTGTC,0.08 kcal/mol
16,GTGGACACGTGATGAT,0.11 kcal/mol
17,GGAGGCACGTGCGATT,0.05 kcal/mol
18,TTAGGCACGTGAGGTA,0.1 kcal/mol
19,TAAGCCACGTGTGTGG,-0.12 kcal/mol
20,TCGATCACGTGAGAGG,0.39 kcal/mol
21,GGTAGCACGTGGTGGC,-0.13 kcal/mol
22,GTGAACACGTGTGTAA,0.03 kcal/mol
23,ACGTTCACGTGACGGG,0.46 kcal/mol
24,TAAATCACGTGAGGTG,0.15 kcal/mol
25,GGGTGCACGTGCCTGT,-0.15 kcal/mol
26,GGTTGCACGTGTCAGT,0.17 kcal/mol

row,Sequence,relative binding free energy
1,CTGGTCACGTGGCTGT,-0.02 kcal/mol
2,CGGTACACGTGATGGA,0.23 kcal/mol
3,TTCTACACGTGGTGGA,-0.08 kcal/mol
4,TAATACACGTGTAATT,0.14 kcal/mol
5,GTGTACACGTGATGCA,0.29 kcal/mol
6,TAACACACGTGTTGTT,-0.01 kcal/mol
7,GGAGACACGTGTGGGC,-0.12 kcal/mol
8,TGGCGCACGTGGGGTC,-0.28 kcal/mol
9,AAGTGCACGTGTCTTG,-0.15 kcal/mol
10,ATGTCCACGTGGTTTG,-0.19 kcal/mol
11,TGCTGCACGTGGTTTC,-0.02 kcal/mol
12,GTTGTCACGTGCTGTA,0.21 kcal/mol
13,GAAAGCACGTGGGGAA,0.09 kcal/mol
14,TAACACACGTGGGTTA,-0.03 kcal/mol
15,CGACGCACGTGGGGTT,-0.23 kcal/mol
16,CGTGTCACGTGAGAGG,0.38 kcal/mol
17,GGGGGCACGTGCGGCC,-0.16 kcal/mol
18,GGGCCCACGTGGTGGT,-0.2 kcal/mol
19,AGTTTCACGTGACGGA,0.2 kcal/mol
20,TGTGACACGTGAATGG,0.12 kcal/mol
21,TCCGGCACGTGGGAGT,-0.11 kcal/mol
22,TGGGTCACGTGGCGTA,-0.04 kcal/mol
23,AATGGCACGTGGTACT,-0.25 kcal/mol
24,AAGGGCACGTGCGTTT,-0.22 kcal/mol
25,AAGGACACGTGGGTGT,-0.11 kcal/mol
26,TTAAGCACGTGATTGG,0.03 kcal/mol

row,Sequence,relative binding free energy
1,TTACGCACGTGTTTGG,-0.09 kcal/mol
2,GTCTACACGTGTGGGG,0.1 kcal/mol
3,CTTGTCACGTGGCGGC,0.11 kcal/mol
4,AGAGTCACGTGTGAGT,0.19 kcal/mol
5,AAAGTCACGTGGGATT,0.11 kcal/mol
6,TGGTACACGTGTGCGT,0.1 kcal/mol
7,TGCTGCACGTGGCTTT,-0.12 kcal/mol
8,TTTGTCACGTGCGGAA,-0.14 kcal/mol
9,TTAAACACGTGTTGTA,-0.03 kcal/mol
10,TTCGACACGTGTTAGT,0.11 kcal/mol
11,GATAGCACGTGGACTG,0.16 kcal/mol
12,GTCGTCACGTGAAGGT,0.23 kcal/mol
13,CGATGCACGTGGAAGG,0.07 kcal/mol
14,GTATTCACGTGTAGGG,0.33 kcal/mol
15,AGTCCCACGTGTGGGG,-0.06 kcal/mol
16,GAGTACACGTGTGGTC,0.21 kcal/mol
17,TATAGCACGTGCTTGG,-0.08 kcal/mol
18,TTAGTCACGTGTGATG,0.13 kcal/mol
19,TGCATCACGTGGTTCG,0.17 kcal/mol
20,GTGCGCACGTGGGGAT,-0.29 kcal/mol
21,AAGGGCACGTGTAGAT,0.15 kcal/mol
22,GTGGGCACGTGAGTTC,0.11 kcal/mol
23,CTGGACACGTGTATTT,0.06 kcal/mol
24,GTGGGCACGTGTTAGA,0.1 kcal/mol
25,TTCTTCACGTGGGGTT,0.29 kcal/mol
26,GATGTCACGTGTTGAA,0.28 kcal/mol

row,Sequence,relative binding free energy
1,TTTCGCACGTGAGGGC,0.17 kcal/mol
2,TCGGGCACGTGAGTCG,0.18 kcal/mol
3,AAGGACACGTGTTTGT,0.01 kcal/mol
4,TTAATCACGTGTAGGT,0.09 kcal/mol
5,CGGATCACGTGTAGTT,0.21 kcal/mol
6,TCATGCACGTGTCGGT,0.02 kcal/mol
7,TTGTGCACGTGACGTC,0.24 kcal/mol
8,TGCTACACGTGAAGGT,0.34 kcal/mol
9,TGGGTCACGTGTACGA,0.12 kcal/mol
10,GGATTCACGTGTATTG,0.32 kcal/mol
11,GAAAGCACGTGATAGG,0.16 kcal/mol
12,TCGTGCACGTGGGTGT,-0.18 kcal/mol
13,TTTCTCACGTGGTGCT,0.18 kcal/mol
14,TTGGACACGTGTATAA,0.07 kcal/mol
15,TTTGCCACGTGTTATG,-0.1 kcal/mol
16,TCGGTCACGTGGTGGT,0.14 kcal/mol
17,TCTGGCACGTGGGGGA,-0.21 kcal/mol
18,TGTTGCACGTGTGAAT,0.02 kcal/mol
19,TATGACACGTGTAGGT,0.06 kcal/mol
20,GTTAACACGTGTAGTG,0.03 kcal/mol
21,TTGAGCACGTGAGTCA,0.12 kcal/mol
22,CGTACCACGTGGGGTG,-0.36 kcal/mol
23,TCTGACACGTGGTGGG,0.03 kcal/mol
24,ATTAGCACGTGGGGGG,-0.19 kcal/mol
25,TTCCACACGTGTTGGG,0.13 kcal/mol
26,ATACGCACGTGTTAGT,-0.17 kcal/mol

row,Sequence,relative binding free energy
1,TACGACACGTGGGGTT,-0.07 kcal/mol
2,TGGTGCACGTGCGCGT,-0.23 kcal/mol
3,TGGTGCACGTGCATAT,-0.1 kcal/mol
4,TAGTTCACGTGCGGCG,0.26 kcal/mol
5,ATTGTCACGTGTTGGG,0.13 kcal/mol
6,CATTACACGTGTAGTT,0.12 kcal/mol
7,CTATTCACGTGGTAGT,0.17 kcal/mol
8,TGAAACACGTGTGCGT,0.03 kcal/mol
9,TATGACACGTGATTAG,0 kcal/mol
10,GTCATCACGTGTGGAT,0.17 kcal/mol
11,AGGGTCACGTGGCTTT,0 kcal/mol
12,GGGCTCACGTGGGTGC,0.08 kcal/mol
13,TGGATCACGTGACGTG,0.37 kcal/mol
14,AGTTGCACGTGGCTGT,-0.14 kcal/mol
15,TGCATCACGTGTTTGC,0.18 kcal/mol
16,AGGGTCACGTGGTCGC,-0.15 kcal/mol
17,TCCGGCACGTGTCTGT,0.24 kcal/mol
18,TGGGTCACGTGTCGTC,0.16 kcal/mol
19,TTAAACACGTGGGGTG,-0.28 kcal/mol
20,TTCTTCACGTGGGTTA,-0.04 kcal/mol
21,ATGGTCACGTGTGGTA,0.19 kcal/mol
22,TGATTCACGTGAGTCT,0.35 kcal/mol
23,TTTGACACGTGGATGG,0.08 kcal/mol
24,GCTGTCACGTGGGGTC,-0.07 kcal/mol
25,GGGGGCACGTGAGGTT,0.28 kcal/mol
26,TAAATCACGTGTAATT,0.2 kcal/mol

row,Sequence,relative binding free energy
1,TAAGGCACGTGGTGAG,-0.14 kcal/mol
2,TTGGACACGTGAAGTA,0.19 kcal/mol
3,TAGTTCACGTGCTTAA,0.38 kcal/mol
4,GTTTACACGTGGCCTG,0.09 kcal/mol
5,GGGTGCACGTGTTGCG,0 kcal/mol
6,ATATGCACGTGATTCT,0 kcal/mol
7,GAGGTCACGTGGAAAA,0.4 kcal/mol
8,GTAGTCACGTGACGTG,0.22 kcal/mol
9,AAAAGCACGTGGGTTG,-0.24 kcal/mol
10,AAAGCCACGTGGGTGG,-0.19 kcal/mol
11,GAGGCCACGTGTTTTT,-0.06 kcal/mol
12,TCAGTCACGTGGGTGG,-0.1 kcal/mol
13,TTGGTCACGTGATTCA,0.17 kcal/mol
14,TGCGTCACGTGATTTT,0.21 kcal/mol
15,TGGATCACGTGTTTGA,0.1 kcal/mol
16,GTATGCACGTGGGACT,-0.17 kcal/mol
17,GAGTGCACGTGGGATT,0.06 kcal/mol
18,GTGGGCACGTGCTGGC,-0.24 kcal/mol
19,GTGAACACGTGATGCG,0.22 kcal/mol
20,TTTCTCACGTGATTAT,0.16 kcal/mol
21,TATAGCACGTGAGTAG,0.14 kcal/mol
22,TTAGCCACGTGGGGGA,-0.31 kcal/mol
23,TTTTACACGTGATTTG,0.29 kcal/mol
24,TGAGTCACGTGGGAGG,0.04 kcal/mol
25,TGTAGCACGTGTATCT,-0.09 kcal/mol
26,GTAGACACGTGCATGG,-0.08 kcal/mol

row,Sequence,relative binding free energy
1,GTGTTCACGTGTGTAC,0.27 kcal/mol
2,GGCTACACGTGATAGG,0.3 kcal/mol
3,TGGCCCACGTGGTAGG,-0.12 kcal/mol
4,GTCGGCACGTGGCTTG,-0.22 kcal/mol
5,GAGTTCACGTGTAGCT,0.35 kcal/mol
6,GTAGGCACGTGGTGGT,-0.06 kcal/mol
7,CGGGGCACGTGCAGGA,-0.15 kcal/mol
8,GAGATCACGTGGTGCG,0.11 kcal/mol
9,ATTAGCACGTGTTACG,-0.01 kcal/mol
10,GTGATCACGTGTGTCT,0.3 kcal/mol
11,CGTCTCACGTGTTAGT,0.15 kcal/mol
12,GGACGCACGTGCGGGT,-0.17 kcal/mol
13,CGGTACACGTGTTGGA,0.08 kcal/mol
14,CTATTCACGTGTTGAA,0.41 kcal/mol
15,TTTGTCACGTGTACGT,0.18 kcal/mol
16,CTAGTCACGTGTGTAT,0.03 kcal/mol
17,CCAGTCACGTGGTGGT,0.13 kcal/mol
18,ATTTACACGTGGGAAA,0.09 kcal/mol
19,GGGTTCACGTGTGCTA,0.19 kcal/mol
20,ATGTACACGTGTTGGA,0.05 kcal/mol
21,AGTGTCACGTGTCGCT,0.13 kcal/mol
22,GTAAACACGTGATGGT,0.11 kcal/mol
23,TGTATCACGTGTCCTT,0.09 kcal/mol
24,TTTTGCACGTGACGGG,0.12 kcal/mol
25,ACTCGCACGTGGGGGA,-0.25 kcal/mol
26,GGGTCCACGTGGTTAA,0.04 kcal/mol

row,Sequence,relative binding free energy
1,TCTTTCACGTGGGGTA,0.1 kcal/mol
2,ATTTACACGTGCGTTT,0.06 kcal/mol
3,TATTTCACGTGCGTTG,0.26 kcal/mol
4,CGTTACACGTGCTTGT,0.01 kcal/mol
5,CAGGGCACGTGTGTTT,-0.03 kcal/mol
6,CGTTACACGTGTGGTC,0.16 kcal/mol
7,TTAGTCACGTGCGGGG,0.08 kcal/mol
8,GTATACACGTGGGTTC,0.03 kcal/mol
9,TAGTTCACGTGCGGTT,0.25 kcal/mol
10,TCTGGCACGTGAGGTT,0.04 kcal/mol
11,AGTGGCACGTGGGTAC,-0.25 kcal/mol
12,TTGAGCACGTGGTGGC,-0.16 kcal/mol
13,CGGTGCACGTGTTTGT,0.03 kcal/mol
14,TGTCGCACGTGATTTT,0.04 kcal/mol
15,TAAGGCACGTGGGCGA,-0.31 kcal/mol
16,TGTAGCACGTGGAATG,-0.03 kcal/mol
17,TTTGTCACGTGGGGAA,0.06 kcal/mol
18,CGTTGCACGTGTGGTG,-0.02 kcal/mol
19,TTTTTCACGTGTTCAC,0.36 kcal/mol
20,CATATCACGTGGTTGT,0.06 kcal/mol
21,GTAGGCACGTGGTCTG,-0.19 kcal/mol
22,CGAGTCACGTGGCGGG,0.13 kcal/mol
